Here are results for 4 substances from patent US20220057408A1.

The assay has as its target HER2 (UniProt P04626). The assay is described as follows: IHC on 2+ HER2+ breast cancer tissue; conjugate at 1 µg/mL detected with MsAntiV5 and HRP multimer/DAB.
“HER2/neu (4B5) antibody-V5 peptide conjugate H1K0” had an IHC Intensity (subjective score of DAB signal strength) of 1.75.

As for “HER2/neu (4B5) antibody-V5 peptide conjugate H2K2”, the IHC Intensity (subjective score of DAB signal strength) was determined as 2.25.

Take “HER2/neu (4B5) antibody-V5 peptide conjugate H3K0”: the IHC Intensity (subjective score of DAB signal strength) came to 2.25.

The substance “HER2/neu (4B5) antibody-V5 peptide conjugate H4K4” showed an IHC Intensity (subjective score of DAB signal strength) of 2.25.
